Source: doi:10.1101/2022.10.03.510647 (bioRxiv, 2022)

Target: PU.1 (UniProt P17433 1-272)
Assay: co-IP

B1: C/EBPα^R35A-Flag (natural protein)
chain: not shown
fold change of the co-precipitate against C/EBPα^WT: ~2 fold
